From paper PMC12040169 (PLOS Biology, 2025)
The other results are listed elsewhere or left out.

system: T1, C. trachomatis L2/434/Bu expressing GFP (CTL2-GFP); set-up: species or system HeLa; C. trachomatis total inclusion area by high-content imaging, normalised to DMSO; details: total inclusion area; 28.5 h, 10 µM; inhibitor
T1 construct: L2/434/Bu GFP intracellular growth in HeLa cells
How it was run: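 Bulk GFP and resorufin signals were read first. Wells were then fixed, stained with Hoechst and imaged to detect GFP inclusions and host nuclei. MICs followed the previously described calculation.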

Compound	% of control remaining
COc1ccc(C(=O)/C=C/c2ccc(N3N=C(c4ccccc4)CC3c3ccccc3)cc2)cc1 (centres unmarked) [CBK262274]	74.4429
CC(C)(C)c1ccc(S(=O)(=O)N2CCCC[C@H]2CCOC(=O)c2ncccc2C(=O)O)cc1 [CBK200066]	106.221
O=C1NC2(CCCN(C(=O)c3ccco3)C2)Oc2ccccc21 (centres unmarked) [CBK284800]	111.704
O=C(Nc1ccc(NC(=O)Nc2cccc(Cl)c2)cc1)Nc1cccc(Cl)c1 [CBK267623]	111.34
CCN(CC)C(=O)N1CCN(CCCC(=O)c2ccc(F)cc2)CC1 [CBK025042C]	63.7041
c1cncc(CNc2nccnc2-c2ccoc2)c1 [CBK037635]	99.5638
CC1(C)Cc2nc3sc4c(=O)n(CC(=O)NCCc5ccccc5)cnc4c3cc2CS1 [CBK269180]	77.8977
c1ccc(C(Oc2nccnc2-c2ccncc2)c2ccccc2)cc1 [CBK106728]	85.2605
CCC(=O)N1C2CCC1c1cnc3cc(-c4ccco4)nn3c1C2 (centres unmarked) [CBK284384]	76.2626
COc1ccc(C(C)C)cc1-c1cnc2[nH]c(=O)n(CCc3cccnc3)c2n1 [CBK064343]	68.2108
CC(C)(C)Nc1c(C2CCN(C(=O)C3CC3)CC2)nc2ccccn12 [CBK284787]	78.6931
CC(=O)Oc1ccc2c(=O)c(C3NC(C(=O)O)Cc4c3[nH]c3ccccc43)coc2c1 (centres unmarked) [CBK293948]	109.365
Cc1ccc(NC(=O)N(Cc2ccc3ccccc3c2)CC2CCNCC2)cc1[N+](=O)[O-] [CBK049771]	85.2702
O=C(Cc1cccnc1)N1Cc2ccccc2C1 [CBK200320]	129.472
CC(=O)Nc1ccc(-n2cc(CN3CCC(Sc4ccccn4)CC3)nn2)cc1 [CBK149476]	80.8371
COc1ccc([C@@H]2CN(C(=O)c3ccccc3)[C@H]3CCN(Cc4ccc(F)cc4)C[C@@H]23)cc1 [CBK285581]	53.5983
CC(C)CNc1nccnc1-c1ccc2c(c1)OCO2 [CBK088730]	89.324
Cc1cc(COc2cc(N3CCCNCC3)ncn2)no1 [CBK085462]	49.1601
CCOC(=O)N1CCN(C(=O)C2CC=CCC2C(=O)O)CC1 (centres unmarked) [CBK266142]	112.506
CC(=O)N1CC2(CCN(C(=O)c3ccco3)CC2)Nc2ccccc21 [CBK284447]	78.9969
Cc1c(Cl)cccc1NC(=S)/N=C(\N)Nc1nc(C)c2ccccc2n1 [CBK268866]	66.8158
COc1cc(CNC2CCCc3c2cnn3C)c(O)c(C(C)(C)C)c1 (centres unmarked) [CBK304716]	59.7809
COc1ccc(OCCCOc2ccccc2C(C)C)cc1 [CBK026366]	58.2354
CCCC/C=C\c1nccnc1OCCn1cccc1 [CBK106891]	98.9183
COc1ccc(-c2noc([C@@H]3C[C@@H](O)CN3Cc3cccc(C#N)c3)n2)cc1 [CBK288843]	111.27
O=C(CCCc1c[nH]c2ccccc12)N1CCn2c(nnc2C2CC2)C1 [CBK283689]	109.552
CC(C)(O)C(=O)NCc1nc2c(s1)CC(c1ccccc1)CC2 (centres unmarked) [CBK304165]	120.153

Compound	% of control remaining
Cn1cc(-c2nccnc2OCCOc2ccccc2)cn1 [CBK107080]	104.621
CN(C)Cc1cc(C[C@@H]2C[C@H](NC(=O)c3ccnc(Cl)c3)C2(C)C)no1 [CBK289311]	105.468
COc1nccnc1-c1ccc(C)c(C)c1 [CBK106853]	101.83
Cc1nc2ccc(C(=O)N(C)Cc3ccco3)cn2c1N(C)C=O [CBK145482]	92.0966
O=S(=O)(Cc1cc(Cl)ccc1F)N1CCN(CCO)CC1 [CBK306385]	67.8957
CC(NC(=O)c1cc2ccc(N(C)C)cc2[nH]1)c1ccccn1 (centres unmarked) [CBK281821]	104.261
Cc1cc(C)n(CC(=O)NC(CC(=O)O)c2ccccc2Cl)n1 (centres unmarked) [CBK305695]	79.746
CCOC(=O)C1=C(C)Nc2nc(C)nc(Cl)c2O1 [CBK021504]	133.198
CC(=O)N[C@H]1C[C@@H](Cc2cc(CCO)on2)C1(C)C [CBK289243]	112.866
O=C(CSc1n[nH]c(=O)n1Cc1ccccc1)NCc1ccc(-c2ccc(Cl)cc2)o1 [CBK296963]	53.2855
CCC(CC)C(=O)N1CCCC1c1n[nH]cc1-c1ccncc1 (centres unmarked) [CBK283467]	101.567
N#CCCn1cc(C(=O)N2CCOCC2)c(-c2cccs2)n1 [CBK306195]	66.9204
O=C1/C(=C/NNc2nc3ccccc3s2)Sc2ccccc21 [CBK261627]	91.9856
O=C(CCc1ccccc1)Nc1cccc(N2C(=O)C3C4c5ccccc5C(c5ccccc54)C3C2=O)c1 (centres unmarked) [CBK265409]	107.294
CCOC(=O)N1CCN(S(=O)(=O)c2ccc3c(c2)oc(=O)n3CC)CC1 [CBK305055]	67.5151
CCOC(=O)CC1=C(C(=O)OCC)C(c2ccccc2C(F)(F)F)C(C#N)=C(N)O1 (centres unmarked) [CBK262710]	87.3269
NC(=O)CN1CCC(Oc2nccnc2OCc2ccc(Cl)c(Cl)c2)CC1 [CBK083110]	93.0625
CN1CCN(C(=O)c2sccc2NS(=O)(=O)c2ccc3ccccc3c2)CC1 [CBK004631]	84.7515
Cc1ccc(S(=O)(=O)Nc2cccc(C(=O)N3CCN(C)CC3)c2)cc1[N+](=O)[O-] [CBK038976]	91.8058
O=C(NCc1csc2c1CCCC2)N1CCCC(c2cc(O)ncn2)C1 (centres unmarked) [CBK306705]	62.1394
CCc1cc(=O)oc2cc(OCC(=O)O)c(Cl)cc12 [CBK265182]	100.013
CCN(CC)C(=O)CN1C(=O)N2CCCN=C2c2ccccc21 [CBK284398]	72.2299
O=C(O)CSc1ccc(Oc2ccc(SCC(=O)O)cc2)cc1 [CBK261254]	101.591
COc1ccc2c(c1OC)C(=O)N(c1cccc(/C=C/C(=O)O)c1)C2 [CBK109932]	87.7998
c1ccc(CCN2CCC(N3CCOCC3)CC2)cc1 [CBK261928]	102.23
CCOc1ccc2ccccc2c1CNCCc1ccc(S(N)(=O)=O)cc1 [CBK268732C]	88.5992
O=C(c1ccc(C#CC2(O)CCCCC2)cc1)N1CCN(Cc2ccccc2)CC1 [CBK263094]	90.2473

Compound	% of control remaining
N#Cc1ccc(CN2CCC(NC3CCCn4nccc43)C2=O)cc1 (centres unmarked) [CBK304770]	111.896
O=C(O)CC(NS(=O)(=O)c1cccc([N+](=O)[O-])c1)c1ccccc1 (centres unmarked) [CBK262641]	105.897
COc1c(Br)cc(/C=C2\SC(=O)NC2=O)cc1Br [CBK102455]	98.3136
CC1CCCC(C)N1CC(O)COc1ccc(/N=C/c2ccccc2O)cc1 (centres unmarked) [CBK261748]	99.0136
CN(C)C(=O)CCCN1C(=O)CC2(C1=O)C(=O)N(C)c1ccc(F)cc12 (centres unmarked) [CBK075380]	80.303
CC(C)(C)OC(=O)N1CCC(CNCc2cc(F)cc(F)c2)CC1 [CBK056715]	88.4768
COc1ccc(C(NC(=O)c2ccc(Cn3cncn3)cc2)c2ccccc2)cc1 (centres unmarked) [CBK285749]	89.0165
Cc1cc(Cl)ccc1OC(C)C(=O)Nc1cc(C(=O)O)cc(C(=O)O)c1 (centres unmarked) [CBK266483]	138.606
c1ccc(Nc2nc(-c3ccc4c(c3)OCO4)cn3ccnc23)cc1 [CBK037494]	96.6619
Cc1cc(C)c2c(n1)oc1c(NC(C)C)ncnc12 [CBK287917]	75.8616
CCOC(=O)C1(Cc2cc(-c3ccccc3)no2)CCCNC1 (centres unmarked) [CBK284583]	66.2195
OC(CCNC1CCCCC1)(c1ccccc1)c1ccccc1 [CBK013339]	64.9448
O=C(COc1ccc(C2CCCCC2)cc1)Nc1cccc(-c2nc3ncccc3o2)c1 [CBK264569]	119.879
Cn1cc(CCC(=O)N2CCN(Cc3ccccn3)CC2)cn1 [CBK305094]	38.9897
Clc1ccccc1COc1cccc(/C=N/Nc2nc(N3CCCC3)nc(N3CCCC3)n2)c1 [CBK019076]	85.0242
Cc1[nH]c2ccccc2c1-c1csc(-c2ccncc2)n1 [CBK264371]	95.8315
CC(C)(C)OC(=O)NCCNC(=O)Nc1ccccc1C(F)(F)F [CBK056940]	126.449
O=[N+]([O-])c1cc(F)ccc1Oc1cccc(C(F)(F)F)c1 [CBK002802]	17.3616
Cc1ccc(C(=O)NCCNC(=O)CN2CCCC2)cc1 [CBK264103]	96.2575
CCOC(=O)N1CCC(NC(=O)N(CCN(C)C)Cc2ccccc2)CC1 [CBK155121]	90.2912
S=C1NCN(Cc2ccc3c(c2)OCO3)CN1 [CBK267899]	98.3924
CC(C)C(=O)Nc1cc2cccnc2c(-c2ccsc2)n1 [CBK081259]	99.3184
CCn1c2cc(C)sc2c2cnn(CC(=O)NC(C)(C)C)c(=O)c21 [CBK284152]	85.8365
O=C(c1cc(-c2ccc(Cl)cc2)nc2ccccc12)n1nnc2ccccc21 [CBK264640]	98.0106
CNC(=O)c1ccc(NC(=O)CC(C)(C)CC(=O)O)cc1 [CBK296615]	97.7066
CCCCC(=O)N(C)c1c(C)nc2ccc(C(=O)Nc3ccc(C(N)=O)cc3)cn12 [CBK147066]	77.6577
